# Measurements published in a collection of fitness landscapes (doi:10.1016/j.celrep.2020.107928).
# The full ranking holds about 81,000 sequences; the median of “one-hybrid fitness for binding NBS DNA” is about -0.1, and the highest 2% start at about 0.36. Some of the results follow.
# B1: Caulobacter ParB omega fusion; a variant is named by its letters at X, in order, B8GW30 (parent)
# chain: MESVVVGEPGMSEGRRGLGRGLSALLGEVDAAPAQAPGEQLGGSREAPIEILQRNPDQPRRTFREEDLEDLSNSIREKGVLQPILVRPSPDTAGEYQIVAGERAWRAAQRAGLKTVPIMVRELDDLAVLEIGIIENVQRADLNVLEEALSYKVLMEKFERTQENIAQTIGKSXSHVANXMRLLXLPDEVQSYLVSGELTAXHARAIAAAADPVALAKQIIEGGLSVRETEALARKAPNLSAGKSKGGRPPRVKDTDTQALESDLSSVLGLDVSIDHRGSTGTLTITYATLEQLDDLCNRLTRGI
# Variants of: B1
# Test: one-hybrid fitness for binding NBS DNA (the Noc-binding site; scaled: cognate 1, non-cognate 0); higher = stronger binding
# Conditions: with NBS DNA site
# How it was run: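 On M9-minus-histidine containing 0.1 mM IPTG and 5 mM 3-AT, E. coli USO cells with a HIS3 reporter, site 19 bp from the promoter, grew 48 hours at 37°C to select Caulobacter ParB libraries randomised at four specificity codons. Plasmids from before and after were Illumina-sequenced, with three replicate libraries pooled and variants under 10 reads left out. Fitness is the log change in variant-to-wild-type read ratio, rescaled against cognate and non-cognate.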
row,Variant,one-hybrid fitness for binding NBS DNA
1,RVVS,0.261
2,CTGS,≤ 0.2
3,TTTT,≤ 0.2
4,LTKR,0.274
5,RCHS,0.577
6,DKIR,≤ 0.2
7,GLYT,≤ 0.2
8,QLAK,≤ 0.2
9,GRMG,≤ 0.2
10,GGDY,≤ 0.2
11,SGYC,≤ 0.2
12,LRGN,≤ 0.2
13,RKFT,0.437
14,LINC,≤ 0.2
15,QQYS,0.406
16,HGVD,≤ 0.2
17,RCVH,≤ 0.2
18,TCTG,≤ 0.2
19,HKEK,≤ 0.2
20,NMNI,≤ 0.2
21,INLW,≤ 0.2
22,KIVS,≤ 0.2
23,YTAV,≤ 0.2
24,FVHS,≤ 0.2
25,RALV,≤ 0.2

row,Variant,one-hybrid fitness for binding NBS DNA
1,RRHF,0.207
2,PRNT,≤ 0.2
3,NQRA,≤ 0.2
4,APPH,≤ 0.2
5,AVFW,≤ 0.2
6,LQAG,≤ 0.2
7,DGMS,≤ 0.2
8,WWMC,≤ 0.2
9,MNYN,≤ 0.2
10,TDEC,≤ 0.2
11,RYMR,0.357
12,YLIN,≤ 0.2
13,PICR,≤ 0.2
14,RVHR,0.484
15,IHQG,≤ 0.2
16,YLPT,≤ 0.2
17,NPNG,≤ 0.2
18,PAMF,≤ 0.2
19,RFMA,≤ 0.2
20,HIAG,≤ 0.2
21,QFTH,≤ 0.2
22,VHPA,≤ 0.2
23,QWPG,≤ 0.2
24,GSSG,≤ 0.2
25,YFAT,≤ 0.2

row,Variant,one-hybrid fitness for binding NBS DNA
1,GIKT,≤ 0.2
2,CVTH,≤ 0.2
3,KTAA,≤ 0.2
4,RTKV,0.33
5,MTNM,≤ 0.2
6,SLLI,≤ 0.2
7,EHRS,≤ 0.2
8,TQSI,≤ 0.2
9,TKYT,≤ 0.2
10,YSAF,≤ 0.2
11,VTPA,≤ 0.2
12,RHAS,0.433
13,APLM,≤ 0.2
14,TCLG,≤ 0.2
15,MAGV,≤ 0.2
16,KNYS,≤ 0.2
17,QDFW,≤ 0.2
18,WWTG,≤ 0.2
19,KRTW,≤ 0.2
20,ILMY,≤ 0.2
21,CRIT,≤ 0.2
22,RWKR,0.372
23,TAHR,≤ 0.2
24,LHSP,≤ 0.2
25,DWWS,≤ 0.2

row,Variant,one-hybrid fitness for binding NBS DNA
1,ALAL,≤ 0.2
2,AMPL,≤ 0.2
3,RARV,≤ 0.2
4,ENCG,≤ 0.2
5,GQAR,≤ 0.2
6,RVKP,≤ 0.2
7,DTSY,≤ 0.2
8,YPMG,≤ 0.2
9,RLWY,≤ 0.2
10,HPQD,≤ 0.2
11,VHTM,≤ 0.2
12,DAHI,≤ 0.2
13,AGPK,≤ 0.2
14,TTMD,≤ 0.2
15,QKCH,≤ 0.2
16,KPSL,≤ 0.2
17,TEHF,≤ 0.2
18,PKIC,≤ 0.2
19,DAVW,≤ 0.2
20,GATP,≤ 0.2
21,RDAG,≤ 0.2
22,KHWK,≤ 0.2
23,IVPQ,≤ 0.2
24,MCYC,≤ 0.2
25,ANMS,≤ 0.2

row,Variant,one-hybrid fitness for binding NBS DNA
1,ACFT,≤ 0.2
2,AKLT,≤ 0.2
3,ACWD,≤ 0.2
4,LTAI,≤ 0.2
5,LVWG,≤ 0.2
6,REQC,≤ 0.2
7,HQGT,≤ 0.2
8,PKRA,≤ 0.2
9,RHFE,≤ 0.2
10,TQEG,≤ 0.2
11,KKDV,≤ 0.2
12,CIAL,≤ 0.2
13,VHHG,≤ 0.2
14,EMKE,≤ 0.2
15,QTQC,0.239
16,RSWR,0.27
17,VKWT,≤ 0.2
18,TYVP,≤ 0.2
19,WHAC,≤ 0.2
20,GSVV,≤ 0.2
21,FYDR,≤ 0.2
22,IIRS,≤ 0.2
23,APPE,≤ 0.2
24,RCEG,≤ 0.2
25,RHQT,0.39

row,Variant,one-hybrid fitness for binding NBS DNA
1,ETAT,≤ 0.2
2,KLLH,≤ 0.2
3,KRMN,≤ 0.2
4,AQFS,≤ 0.2
5,IRIV,≤ 0.2
6,AAAK,≤ 0.2
7,QNKI,≤ 0.2
8,RCEM,≤ 0.2
9,WSAW,≤ 0.2
10,QIRC,0.241
11,NDVS,≤ 0.2
12,LETT,≤ 0.2
13,SSPR,≤ 0.2
14,PNAG,≤ 0.2
15,RVMW,≤ 0.2
16,DFKR,≤ 0.2
17,NYVH,≤ 0.2
18,GLKI,≤ 0.2
19,LQLF,≤ 0.2
20,NETG,≤ 0.2
21,RKTE,≤ 0.2
22,AKRR,≤ 0.2
23,VSLA,≤ 0.2
24,LPSY,≤ 0.2
25,MNRG,≤ 0.2

row,Variant,one-hybrid fitness for binding NBS DNA
1,RHYI,≤ 0.2
2,SLQP,≤ 0.2
3,ELLD,≤ 0.2
4,TCKC,≤ 0.2
5,WHGG,≤ 0.2
6,YVHE,≤ 0.2
7,VLEG,≤ 0.2
8,PWAF,≤ 0.2
9,TGSV,≤ 0.2
10,KLGW,≤ 0.2
11,CMVR,≤ 0.2
12,TWPN,≤ 0.2
13,KCPT,≤ 0.2
14,LHSF,≤ 0.2
15,NINI,≤ 0.2
16,FSWE,≤ 0.2
17,QRGA,0.653
18,IIQC,≤ 0.2
19,PGYL,≤ 0.2
20,RGQG,≤ 0.2
21,QAVE,≤ 0.2
22,VPRW,≤ 0.2
23,RTQT,0.537
24,VHHV,≤ 0.2
25,QNNV,≤ 0.2

row,Variant,one-hybrid fitness for binding NBS DNA
1,PQCL,≤ 0.2
2,NYRI,≤ 0.2
3,IYAS,≤ 0.2
4,NGMS,≤ 0.2
5,GPVC,≤ 0.2
6,PNRC,≤ 0.2
7,TTYP,≤ 0.2
8,QPET,≤ 0.2
9,RNDR,≤ 0.2
10,KMPN,≤ 0.2
11,ALIM,≤ 0.2
12,VYVV,≤ 0.2
13,EPCS,≤ 0.2
14,DLWS,≤ 0.2
15,VRQS,≤ 0.2
16,TFTS,≤ 0.2
17,SVYA,≤ 0.2
18,NAGG,≤ 0.2
19,CKHG,≤ 0.2
20,AVRS,≤ 0.2
